Patent US20190055527A1 (KYUSHU UNIVERSITY NATIONAL UNIVERSITY, published 2019)

Target: T1, PCNA from Pyrococcus furiosus (Pyrococcus furiosus, UniProt O73947 1-249)
T1 construct: Wild-type PfuPCNA immobilised on a CM5 chip by amine coupling; also called PfuPCNA
T1 sequence (looked up): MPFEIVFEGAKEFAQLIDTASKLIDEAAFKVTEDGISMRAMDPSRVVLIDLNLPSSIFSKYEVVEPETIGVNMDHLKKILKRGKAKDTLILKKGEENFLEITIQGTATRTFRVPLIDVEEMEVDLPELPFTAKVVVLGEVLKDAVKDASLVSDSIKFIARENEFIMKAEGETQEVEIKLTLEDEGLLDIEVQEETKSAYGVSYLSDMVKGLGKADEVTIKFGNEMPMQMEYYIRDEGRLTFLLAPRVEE
Assay: SPR (BIAcore J), PfuPCNA immobilised on CM5 chip; Kd of Taq94 against Kd of Taq81 to Taq85
Protocol: In the surface plasmon resonance (SPR) analysis, BIAcore J (manufactured by BIACORE) was used. A PCNA from Pyrococcus furiosus (J. Bacteriology, 181, 6591-6599, 1999: hereinafter referred to as PfuPCNA) was immobilized on a CM5 sensor chip (manufactured by GE Healthcare) by amine coupling, and the measurement was carried out under the conditions of 25° C., a flow rate of 30 μL/minutes, and a solution E (10 mM Tris-HCl, 50 mM KCl, 1.5 mM MgCl₂, pH 8.3). A sample solution of Taq81 to Taq85 diluted to 10, 20, 40, 80, 160, or 320 nM or a sample solution of Taq94 diluted to 125 nM, 250 nM, 500 nM, 1 μM, or 2 μM was each added for 2 minutes. The sensorgrams obtained were analyzed by BIA evaluation program, and the dissociation constants (Kd) between Taq81 to Taq85 and PfuPCNA and between Taq94 and PfuPCNA were calculated.

- fold of the dissociation constants of Taq81 to Taq85: ~10 fold
B1: Taq94 (Taq-L15-PIP) (enzyme)
chain: MRGMLPLFEPKGRVLLVDGHHLAYRTFHALKGLTTSRGEPVQAVYGFAKSLLKALKEDGDAVIVVFDAKAPSFRHEAYGGYKAGRAPTPEDFPRQLALIKELVDLLGLARLEVPGYEADDVLASLAKKAEKEGYEVRILTADKDLYQLLSDRIHALHPEGYLITPAWLWEKYGLRPDQWADYRALTGDESDNLPGVKGIGEKTARKLLEEWGSLEALLKNLDRLKPAIREKILAHMDDLKLSWDLAKVRTDLPLEVDFAKRREPDRERLRAFLERLEFGSLLHEFGLLESPKALEEAPWPPPEGAFVGFVLSRKEPMWADLLALAAARGGRVHRAPEPYKALRDLKEARGLLAKDLSVLALREGLGLPPGDDPMLLAYLLDPSNTTPEGVARRYGGEWTEEAGERAALSERLFANLWGRLEGEERLLWLYREVERPLSAVLAHMEATGVRLDVAYLRALSLEVAEEIARLEAEVFRLAGHPFNLNSRDQLERVLFDELGLPAIGKTEKTGKRSTSAAVLEALREAHPIVEKILQYRELTKLKSTYIDPLPDLIHPRTGRLHTRFNQTATATGRLSSSDPNLQNIPVRTPLGQRIRRAFIAEEGWLLVALDYSQIELRVLAHLSGDENLIRVFQEGRDIHTETASWMFGVPREAVDPLMRRAAKTINFGVLYGMSAHRLSQELAIPYEEAQAFIERYFQSFPKVRAWIEKTLEEGRRRGYVETLFGRRRYVPDLEARVKSVREAAERMAFNMPVQGTAADLMKLAMVKLFPRLEEMGARMLLQVHDELVLEAPKERAEAVARLAKEVMEGVYPLAVPLEVEVGIGEDWLSAKESGSGSSGSGSGSGSGKQATLFDFLKK
notes: Taq DNA polymerase, 15-residue Ser/Gly linker, PfuRFCL PIP box at the C-terminus; also called DNA polymerase variant Taq94
